Publication PMC5700166
The list shows a part of the results, in another mix than the full data. The list includes weakly bound sequences.

Target: T1, GST-Nv-NF-kB (Cys allele) (UniProt E5G601)
T1 sequence: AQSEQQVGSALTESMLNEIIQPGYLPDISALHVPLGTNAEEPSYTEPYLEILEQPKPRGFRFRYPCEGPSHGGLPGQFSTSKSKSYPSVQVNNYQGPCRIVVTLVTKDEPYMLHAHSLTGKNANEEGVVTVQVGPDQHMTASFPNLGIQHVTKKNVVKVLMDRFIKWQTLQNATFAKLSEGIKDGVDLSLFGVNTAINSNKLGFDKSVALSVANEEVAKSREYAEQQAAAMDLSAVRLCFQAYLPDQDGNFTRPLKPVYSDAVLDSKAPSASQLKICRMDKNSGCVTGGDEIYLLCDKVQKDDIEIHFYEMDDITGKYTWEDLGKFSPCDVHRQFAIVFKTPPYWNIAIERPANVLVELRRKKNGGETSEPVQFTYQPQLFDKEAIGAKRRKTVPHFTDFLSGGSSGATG
Assay: protein-binding microarray (PBM)
Conditions: PBM: ~300 nM protein, 6 mM HEPES pH 7.8, 80 mM KCl, 0.5 mM EDTA, 0.5 mM EGTA, 6% glycerol, 35 ng/ul poly-dIdC, 1% milk, 1 h, room temperature; high values mean tight binding; double strand, one strand shown

| Sequence | binding signal [z-score] |
| --- | --- |
| CCGATTAACATCAGAAACTCCCCTGATGTTAATCGGGTCTTGATTCGCTTGACGCTGCTG | 7.68 |
| CCGATTAACATCAAGGGGGGACTTGATGTTAATCGGGTCTTGATTCGCTTGACGCTGCTG | 5.56 |
| CCGATTAACATCACCCTTGGGAATGATGTTAATCGGGTCTTGATTCGCTTGACGCTGCTG | 0.985 |
| CCGATTAACATCAGGGAAGTACCTGATGTTAATCGGGTCTTGATTCGCTTGACGCTGCTG | 7.36 |
| CCGATTAACATCAGGGAAAGGGATGATGTTAATCGGGTCTTGATTCGCTTGACGCTGCTG | 3.29 |
| CCGATTAACATCAGGGGTTCCCATGATGTTAATCGGGTCTTGATTCGCTTGACGCTGCTG | 2.36 |
| CCGATTAACATCACTGGATTCCCTGATGTTAATCGGGTCTTGATTCGCTTGACGCTGCTG | 2.76 |
| CCGATTAACATCACCACTTTCCCTGATGTTAATCGGGTCTTGATTCGCTTGACGCTGCTG | 4.07 |
| CCGATTAACATCATCCGGGAAAATGATGTTAATCGGGTCTTGATTCGCTTGACGCTGCTG | 3.79 |
| CCGATTAACATCAAAAGTCCCCGTGATGTTAATCGGGTCTTGATTCGCTTGACGCTGCTG | 8.18 |
| CCGATTAACATCAGGAATATCCCTGATGTTAATCGGGTCTTGATTCGCTTGACGCTGCTG | 3.66 |
| CCGATTAACATCAGGGGAACCACTGATGTTAATCGGGTCTTGATTCGCTTGACGCTGCTG | 6.92 |

Target: T2, GST-Co-NF-kB (UniProt F1ARL5)
T2 sequence: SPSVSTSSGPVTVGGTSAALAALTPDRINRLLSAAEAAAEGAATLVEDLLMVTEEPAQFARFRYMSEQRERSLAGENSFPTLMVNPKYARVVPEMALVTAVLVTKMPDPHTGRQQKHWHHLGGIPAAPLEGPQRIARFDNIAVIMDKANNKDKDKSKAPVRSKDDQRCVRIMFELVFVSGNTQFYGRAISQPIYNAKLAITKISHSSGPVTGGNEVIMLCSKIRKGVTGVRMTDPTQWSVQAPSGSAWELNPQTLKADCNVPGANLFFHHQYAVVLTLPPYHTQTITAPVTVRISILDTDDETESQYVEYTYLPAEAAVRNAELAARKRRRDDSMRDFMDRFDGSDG
Assay: protein-binding microarray (PBM)
Conditions: PBM: ~300 nM protein, 6 mM HEPES pH 7.8, 80 mM KCl, 0.5 mM EDTA, 0.5 mM EGTA, 6% glycerol, 35 ng/ul poly-dIdC, 1% milk, 1 h, room temperature; high values mean tight binding; double strand, one strand shown

| Sequence | binding signal [z-score] |
| --- | --- |
| CCGATTAACATCAGAAAATTCCCTGATGTTAATCGGGTCTTGATTCGCTTGACGCTGCTG | 4.76 |
| CCGATTAACATCAACGAAACCCCTGATGTTAATCGGGTCTTGATTCGCTTGACGCTGCTG | 1.39 |
| CCGATTAACATCAGGGGGATAGATGATGTTAATCGGGTCTTGATTCGCTTGACGCTGCTG | 5.41 |
| CCGATTAACATCAGGGGGAGAACTGATGTTAATCGGGTCTTGATTCGCTTGACGCTGCTG | 7.22 |
| CCGATTAACATCAGATTTCCCACTGATGTTAATCGGGTCTTGATTCGCTTGACGCTGCTG | 3.15 |
| CCGATTAACATCAAGGGGAAATCTGATGTTAATCGGGTCTTGATTCGCTTGACGCTGCTG | 7.59 |
| CCGATTAACATCACTGTTTTCCCTGATGTTAATCGGGTCTTGATTCGCTTGACGCTGCTG | 4.9 |
| CCGATTAACATCAGGAACTACCCTGATGTTAATCGGGTCTTGATTCGCTTGACGCTGCTG | 1.33 |
| CCGATTAACATCAAGGGGGGGCATGATGTTAATCGGGTCTTGATTCGCTTGACGCTGCTG | 4.6 |
| CCGATTAACATCAGGGTTCCCCATGATGTTAATCGGGTCTTGATTCGCTTGACGCTGCTG | 5.37 |
| CCGATTAACATCACGGACTTCCCTGATGTTAATCGGGTCTTGATTCGCTTGACGCTGCTG | 0.974 |
| CCGATTAACATCAGGGGGTTGCATGATGTTAATCGGGTCTTGATTCGCTTGACGCTGCTG | 2.22 |
| CCGATTAACATCACTTATCCCCCTGATGTTAATCGGGTCTTGATTCGCTTGACGCTGCTG | 6.68 |
| CCGATTAACATCAAAGTTTCCCATGATGTTAATCGGGTCTTGATTCGCTTGACGCTGCTG | 4.66 |
| CCGATTAACATCACGGGGTTCCCTGATGTTAATCGGGTCTTGATTCGCTTGACGCTGCTG | 2.51 |
| CCGATTAACATCAAGGTAATCCCTGATGTTAATCGGGTCTTGATTCGCTTGACGCTGCTG | 1.06 |
| CCGATTAACATCAGGGGCTTACCTGATGTTAATCGGGTCTTGATTCGCTTGACGCTGCTG | 1.88 |
| CCGATTAACATCAGGGGGGAGAATGATGTTAATCGGGTCTTGATTCGCTTGACGCTGCTG | 7.95 |
| CCGATTAACATCAATCTCCCCCATGATGTTAATCGGGTCTTGATTCGCTTGACGCTGCTG | 8.65 |
| CCGATTAACATCAAGGATTCCCGTGATGTTAATCGGGTCTTGATTCGCTTGACGCTGCTG | 3.1 |
| CCGATTAACATCAGGAACTCCCCTGATGTTAATCGGGTCTTGATTCGCTTGACGCTGCTG | 3.87 |
| CCGATTAACATCAGGATTACCCCTGATGTTAATCGGGTCTTGATTCGCTTGACGCTGCTG | 3.97 |
| CCGATTAACATCACTAAACCCCCTGATGTTAATCGGGTCTTGATTCGCTTGACGCTGCTG | 3.32 |
| CCGATTAACATCAGGAGAACCCCTGATGTTAATCGGGTCTTGATTCGCTTGACGCTGCTG | 1.26 |
| CCGATTAACATCACCGATTTCCCTGATGTTAATCGGGTCTTGATTCGCTTGACGCTGCTG | 3.27 |
| CCGATTAACATCAGGGGACAACCTGATGTTAATCGGGTCTTGATTCGCTTGACGCTGCTG | 3.44 |
| CCGATTAACATCACATCCCCCCCTGATGTTAATCGGGTCTTGATTCGCTTGACGCTGCTG | 6.54 |
| CCGATTAACATCAGAAATTCCCATGATGTTAATCGGGTCTTGATTCGCTTGACGCTGCTG | 4.07 |

Target: T3, GST-Dm-Relish (UniProt Q94527)
T3 sequence: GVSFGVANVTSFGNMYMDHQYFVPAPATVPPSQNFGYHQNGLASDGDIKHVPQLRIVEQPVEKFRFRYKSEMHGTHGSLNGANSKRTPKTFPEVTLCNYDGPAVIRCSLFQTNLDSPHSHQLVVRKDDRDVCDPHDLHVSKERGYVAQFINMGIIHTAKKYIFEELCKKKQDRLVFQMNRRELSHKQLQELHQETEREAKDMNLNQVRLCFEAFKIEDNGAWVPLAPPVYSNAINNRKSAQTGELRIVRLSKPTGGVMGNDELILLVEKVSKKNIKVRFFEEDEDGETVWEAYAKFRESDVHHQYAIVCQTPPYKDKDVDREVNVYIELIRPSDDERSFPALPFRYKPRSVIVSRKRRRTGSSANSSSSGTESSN
Assay: protein-binding microarray (PBM)
Conditions: PBM: ~300 nM protein, 6 mM HEPES pH 7.8, 80 mM KCl, 0.5 mM EDTA, 0.5 mM EGTA, 6% glycerol, 35 ng/ul poly-dIdC, 1% milk, 1 h, room temperature; Ap Aiptasia and Nv Nematostella (sea anemones) / Co Capsaspora / Aq Amphimedon (sponge) / Dm Drosophila / Hu human; RHD is the Rel homology domain; high values mean tight binding; most listed sequences are background and not binding sites; double strand, one strand shown

| Sequence | binding signal [z-score] |
| --- | --- |
| CCGATTAACATCAGAAACTCCCCTGATGTTAATCGGGTCTTGATTCGCTTGACGCTGCTG | 7.08 |
| CCGATTAACATCAAGGGGGGACTTGATGTTAATCGGGTCTTGATTCGCTTGACGCTGCTG | 5.09 |
| CCGATTAACATCACCCTTGGGAATGATGTTAATCGGGTCTTGATTCGCTTGACGCTGCTG | 0.883 |
| CCGATTAACATCAGGGAAGTACCTGATGTTAATCGGGTCTTGATTCGCTTGACGCTGCTG | 9.88 |
| CCGATTAACATCAGGGAAAGGGATGATGTTAATCGGGTCTTGATTCGCTTGACGCTGCTG | 0.0156 |
| CCGATTAACATCAGGGGTTCCCATGATGTTAATCGGGTCTTGATTCGCTTGACGCTGCTG | 10 |
| CCGATTAACATCACTGGATTCCCTGATGTTAATCGGGTCTTGATTCGCTTGACGCTGCTG | 4.48 |
| CCGATTAACATCACCACTTTCCCTGATGTTAATCGGGTCTTGATTCGCTTGACGCTGCTG | 1.32 |
| CCGATTAACATCATCCGGGAAAATGATGTTAATCGGGTCTTGATTCGCTTGACGCTGCTG | 1.58 |
| CCGATTAACATCAAAAGTCCCCGTGATGTTAATCGGGTCTTGATTCGCTTGACGCTGCTG | 9.25 |
| CCGATTAACATCAGGAATATCCCTGATGTTAATCGGGTCTTGATTCGCTTGACGCTGCTG | 2.78 |
| CCGATTAACATCAGGGGAACCACTGATGTTAATCGGGTCTTGATTCGCTTGACGCTGCTG | 10.4 |
